Measured values as given in PubChem BioAssay AID1963576 (National Center for Advancing Translational Sciences (NCATS), 2024).
The campaign covered roughly 46,000 compounds. About 60 (0.1%) were called active. Not shown: some 3% with an inconclusive outcome. Calls come from the whole dose curve; as a rule, active = well fitted inhibition curve with a large enough effect; inconclusive = small, poorly fitted or top-dose-only effect; inactive = no such curve, though single readings can be large or run the other way. The list shows a part of the results.

Assay: Primary qHTS assay for Inhibitors of ovarian cancer metastasis using an organotypic tumor microenvironment (TME) model.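 For activity change, negative = inhibition: plate controls were DMSO wells for no effect and tomatine positive control wells for full effect.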 Note: nearly all actives have a fitted effect of over 65% in size.
Settings: SKOV3ip1-GFP adhesion/invasion on 3D omental model, fluorescence; series mostly up to 45.8 µM; activity change, negative = inhibition: at the top concentration
How it was run: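 Adhesion/invasion was scored as fixed GFP-labeled SKOV3ip1 cell counts (488/509 nm), normalized to DMSO and tomatine controls. Cancer cells in serum-free medium, with four compound doses (0.36-46 umol/L), sat 2 hr at RT then 16 hr at 37 C on a 48 hr fibroblast/mesothelial/ECM culture.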

SMILES | activity change, negative = inhibition | outcome
O=C(Cn1ncc2c3ccccc3n(Cc3ccc(F)cc3)c2c1=O)NCCC1=CCCCC1 | inactive: 8.98% | –
Cc1ccc(CNc2ncnc3c2nnn3C)cc1 | inactive: 17.5% | –
COc1ccc(NC(=O)CC2C(=O)N(c3cccc(C)c3)C(=O)N2Cc2cccnc2)cc1 (stereo unspecified) | – | inactive
CCc1ccc(CNC(=O)CN2C(=O)CSc3c2c(C)nn3-c2ccccc2)cc1 | – | inactive
Cc1cn2c(=O)cc(COC(=O)c3cccc(NC(=O)c4ccccc4Cl)c3)nc2s1 | inactive: 7.83% | –
CCC(CC)c1nn2c(=O)cc(COc3ccc(NC(=O)c4ccc(C)cc4)cc3)nc2s1 | inactive: 5.23% | –
Cc1c(C(=O)Nc2ccc(C(C)C)cc2)sc2nc3n(c(=O)c12)CCC3 | inactive: 1.82% | –
Cc1nn(C(=O)c2ccc(Cl)cc2)c(C)c1S(=O)(=O)N1CCOCC1 | inactive: 1.99% | –
CC(C)(C)OC(=O)N1CCC(c2c(C(=O)N3CCN(c4ccccc4)CC3)cnn2-c2ccccc2)CC1 | inactive: 4.32% | –
CCOC(=O)c1c(Nc2ccc(F)cc2)nnc(-c2ccccc2)c1-c1ccccc1 | inactive: 59.5% | –
CCn1c(=O)n(-c2ccc(F)cc2)c(=O)c2sc3ccccc3c21 | – | inactive
COc1ccc(-c2nc(SCC(=O)N3CCN(c4ccc(F)cc4)CC3)n[nH]2)cc1 | inactive: -1.61% | –
CCCCOc1ccc(CNC(=O)Cc2ccc(NC(=O)N3CCCCc4ccccc43)cc2)cc1 | – | inactive
COc1ccc(CCNC(=O)c2ccc3c(c2)N(Cc2cc(C)ccc2C)C(=O)c2ccccc2S3=O)cc1OC (stereo unspecified) | inactive: -3.18% | –
O=C(c1ccccc1Cl)N(Cc1ccco1)c1ccccn1 | inactive: 3.22% | –
CCCN(C(=O)c1cc2ccc3cccnc3c2[nH]1)c1ccc(F)cc1 | inactive: -3.06% | –
COC(=O)c1sc2cccc(F)c2c1S(=O)(=O)Nc1ccc(N(C)C)cc1 | inactive: 1.97% | –
Cc1cc(Br)ccc1NC(=O)Cn1cnc2sc(C)c(S(=O)(=O)N3CCN(C)CC3)c2c1=O | inactive: 3.98% | –
CC(=O)N1CCC2(CC1)OC(=O)C(C)=C2C(=O)Nc1cc(C)ccc1C | inactive: -2% | –
COc1ccc(CCCc2nnc(SCC(=O)Nc3cc(C)ccc3C)o2)cc1 | inactive: 1.91% | –
COC(=O)c1ccccc1NC(=O)c1ccc(COc2cc(C)cc(C)c2)o1 | inactive: -15.9% | –

SMILES | activity change, negative = inhibition | outcome
CCc1ccc(-c2[nH]nc3nc(-c4ccc(OC)cc4)cc(C(=O)NCCCOC)c23)cc1 | inactive: 1.01% | –
COc1ccc(Br)c2c1-c1nc(NC(=O)c3ccccc3F)sc1C2 | inactive: -3.18% | –
CCOC(=O)c1cc(-c2ccc(C)cc2)n(CC(=O)Nc2ccccc2F)c1C | – | inactive
COc1ccc(CNC(=O)Cc2c(C)c3c(cc(C)c4c(C)coc43)oc2=O)cc1OC | inactive: 7.56% | –
Cc1nc2cccnc2n1C1CCN(S(=O)(=O)N(C)C)CC1 | inactive: 42.3% | –
COc1ccc(Cl)cc1NC(=O)Cn1c(=O)n(Cc2cccs2)c(=O)c2cccnc21 | inactive: 7.01% | –
CC(=O)Nc1ccc(-n2c(CCC(=O)O)ccc2-c2ccc(Br)cc2)cc1 | inactive: 1.18% | –
CC1=C(C(=O)O)N2C(=O)[C@@H](NC(=O)C(N)c3ccccc3)[C@H]2SC1 (stereo partly specified) | inactive: 2.42% | –
CCOc1ccc(NC(=O)CCn2c(=O)c3cccn3c3cccnc32)cc1 | – | inactive
Cc1nn(CC(=O)NCc2ccc(N(C)C)cc2)c(=O)c2c(C)n(-c3ccc(Cl)cc3)nc12 | inactive: -0.961% | –
Cc1nc2ccc(S(=O)(=O)N(CC(=O)Nc3cccc(Cl)c3)Cc3ccccc3)cc2s1 | inactive: 0.0734% | –
CC1CCC(NC(=O)CCc2cn(Cc3ccccc3Cl)c3ccccc23)CC1 (stereo unspecified) | – | inactive
Cc1cc(NC(=O)c2cc(-c3cccc(Cl)c3)on2)nn1Cc1ccc(Cl)cc1 | inactive: -2.42% | –
CCCN(CCC)C(=O)Cn1c(=O)n(-c2ccc(C)c(C)c2)c(=O)c2c3c(sc21)CCCCC3 | inactive: 13.8% | –
CCOc1ccc(Cn2nnc(C(=O)Nc3cccc(SC)c3)c2N)cc1 | inactive: 7.08% | –
Cc1cc2nn(-c3ccccc3)nc2cc1NC(=O)COc1ccc(Cl)cc1 | – | inactive
Cc1nn(-c2ccc(F)cc2)c(-n2cccc2)c1C(=O)N1CCN(c2ccccc2)CC1 | – | inactive
Cc1ccc(C)c(Cn2c3ccccc3c3cnn(CC(=O)NC4CCC(C)CC4)c(=O)c32)c1 (stereo unspecified) | inactive: 0.969% | –
COc1ccc(NC(=O)CSC2=Nc3ccccc3C3=NC(CCC(=O)NCc4cccs4)C(=O)N23)cc1 (stereo unspecified) | – | inactive
O=C(NCCc1ccccc1)C1CCN(c2ncnc3c2nc2n3CCCCC2)CC1 | inactive: -2.76% | –
Cc1ccc(NC(=O)CSc2nnc(-c3cc4occc4n3C)n2-c2ccccc2C)c(Cl)c1 | – | inactive

SMILES | activity change, negative = inhibition | outcome
COC(=O)CN1C(=O)CSc2ccc(S(=O)(=O)Nc3cccc(Br)c3)cc21 | inactive: -1.14% | –
Cc1ccc(CN2C(=O)N(c3ccc(F)cc3)C(=O)C2CC(=O)Nc2ccc(Cl)cc2)cc1 (stereo unspecified) | – | inactive
Cc1ncc(CO)c2c1Oc1nc(-c3ccc(F)cc3)nc(SCC(=O)N3CCCCC3)c1C2 | inactive: 4.26% | –
Cc1ccccc1CNC(=O)C1CCN(S(=O)(=O)Cc2ccccc2)CC1 | inactive: -7.24% | –
COc1cc(/C=C/c2nc(C#N)c(N3CCCCC3)o2)cc(OC)c1OC | inactive: -8.65% | –
CCOc1ccc(NC(=O)CSc2nc3c(oc4ccccc43)c(=O)n2-c2cc(C)cc(C)c2)cc1 | – | inactive
CCOc1ccc(-c2nonc2NC(=O)c2ccco2)cc1 | inactive: -8.33% | –
CCCCOC(=O)/C(C#N)=C/c1ccc(-c2cccc(C(F)(F)F)c2)o1 | inactive: 1.12% | –
CC1=C(C(=O)NCc2cccc(Br)c2)C2(CCCCC2)OC1=O | – | inactive
Cc1ccc(C2c3[nH]c4ccccc4c3CCN2C(=O)c2ccccc2Br)cc1 (stereo unspecified) | – | inactive
Cc1ccc(C(=O)Nc2c(-c3ccccc3)nc3ccccn23)cc1 | – | inactive
Cc1nnc(N2CCC(C(=O)Nc3ccc(F)cc3)CC2)c2nn(-c3ccc(Cl)cc3)c(C)c12 | inactive: 6.98% | –
COc1ccc2c(c1)-c1nc(NC(=O)c3ccc(OC)c(Br)c3)sc1CC2 | inactive: -3.92% | –
COc1ccc(OC)c(NC(=O)c2c(NCc3sccc3C)sc3c2CCCCC3)c1 | inactive: -0.673% | –
Cc1cccc(-c2noc(CN(C3CCCCC3)S(=O)(=O)c3ccc(F)cc3)n2)c1 | inactive: 1.33% | –
CCC(C(=O)OCc1cc(=O)n2nc(C)sc2n1)c1ccccc1 (stereo unspecified) | – | inactive
COc1ccc(NC(=O)CSc2nc3ccccc3nc2N2CCC(C)CC2)cc1 | inactive: -9.56% | –
COc1ccc(CNC(=O)CN(c2ccc(C(C)C)cc2)S(=O)(=O)c2c(C)nn(C)c2C)cc1 | inactive: -9.45% | –
CCc1ccc(NC(=O)CC2C(=O)N(c3cccc(C)c3)C(=O)N2CCC(C)C)cc1 (stereo unspecified) | inactive: -1.59% | –
